IC50 is the fitted dose that halves viability relative to control wells, and lower means more sensitive; a fit beyond the top or the lowest dose is shown as a bound at that dose. AUC is the area under the same curve over the 256-fold range up to the top dose, as a fraction; it is 1 without any effect and falls as sensitivity rises. For some of these results: The top dose, if marked as inferred, was derived from the fitted curves, not read from the paper.
How the values were obtained:
Assay in all cases: Viability of human cancer cell lines after 72 h of drug (GDSC screen)
Bexarotene = compound: C=C(c1ccc(C(=O)O)cc1)c1cc2c(cc1C)C(C)(C)CCC2(C)C [Bexarotene]; conditions: top dose 8 µM
Experimental: (§1)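 Human cancer cell lines in 384-well plates, medium with 10% serum, drug for 72 h over a 256-fold dose range (nine 2-fold or five 4-fold steps up to the top dose). Adherent lines were fixed and stained with the nucleic acid dye Syto60, suspension lines read with resazurin; signal relative to control wells, capped at 0 and 100%. One two-parameter sigmoid per drug and line, fitted in a mixed model over all curves with the slope shared within a line.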

GSK-650394 = compound: O=C(O)c1ccc(-c2c[nH]c3ncc(-c4ccccc4)cc23)cc1C1CCCC1 [GSK-650394]; conditions: top dose 16 µM; top dose inferred
Experimental: as §1

XAV 939 = compound: Oc1nc(-c2ccc(C(F)(F)F)cc2)nc2c1CSCC2 [XAV 939]; conditions: top dose 5 µM; top dose inferred
Experimental: as §1

NPK76-II-72-1 = compound: COc1cc(C(=O)NC2CCN(C)CC2)ccc1Nc1ncc2c(n1)N(C1CCCC1)C(C)CC(=O)N2C [NPK76-II-72-1]; conditions: top dose 10.24 µM; top dose inferred
Experimental: as §1

BMS-345541 = compound: Cc1ccc2nc(NCCN)c3ncc(C)n3c2c1 [BMS-345541]; conditions: top dose 16 µM
Experimental: as §1

YK 4-279 = compound: COc1ccc(C(=O)CC2(O)C(=O)Nc3c(Cl)ccc(Cl)c32)cc1 [YK 4-279]; conditions: top dose 10 µM
Experimental: as §1

Etoposide = compound: COc1cc([C@@H]2c3cc4c(cc3[C@@H](O[C@@H]3O[C@@H]5CO[C@@H](C)O[C@H]5[C@H](O)[C@H]3O)[C@H]3COC(=O)[C@H]23)OCO4)cc(OC)c1O [Etoposide]; conditions: top dose 16 µM
Experimental: as §1

AZD7762 = compound: NC(=O)Nc1cc(-c2cccc(F)c2)sc1C(=O)N[C@H]1CCCNC1 [AZD7762]; conditions: top dose 2 µM
Experimental: as §1

| Cell Line | AUC (Bexarotene) | IC50 (Bexarotene) [µM] | AUC (GSK-650394) | IC50 (GSK-650394) [µM] | AUC (XAV 939) | IC50 (XAV 939) [µM] | AUC (NPK76-II-72-1) | IC50 (NPK76-II-72-1) [µM] | AUC (BMS-345541) | IC50 (BMS-345541) [µM] | AUC (YK 4-279) | IC50 (YK 4-279) [µM] | AUC (Etoposide) | IC50 (Etoposide) [µM] | AUC (AZD7762) | IC50 (AZD7762) [µM] |
| --- | --- | --- | --- | --- | --- | --- | --- | --- | --- | --- | --- | --- | --- | --- | --- | --- |
| MHH-ES-1 (Ewing sarcoma, adherent) | 0.972 | > 8 | 0.83 | 9.88 | 0.969 | > 5 | 0.599 | 1.19 | 0.854 | 12.4 | 0.623 | 1.35 | 0.399 | 0.53 | 0.529 | 0.15 |
| MHH-PREB-1 (B-cell leukaemia, suspension) | 0.948 | > 8 | 0.886 | 14.5 | 0.956 | > 5 | 0.456 | 0.492 | 0.718 | 3.82 | 0.672 | 1.77 | 0.804 | 7.02 | 0.468 | 0.103 |
| MLMA (hairy cell leukaemia, semi-adherent) | 0.986 | > 8 | 0.969 | > 16 | 0.983 | > 5 | 0.67 | 1.91 | 0.873 | 15.7 | 0.553 | 0.872 | 0.699 | 3.65 | 0.364 | 0.0526 |
| MMAC-SF (melanoma, adherent) | 0.987 | > 8 | 0.888 | > 16 | 0.986 | > 5 | 0.979 | > 10.2 | 0.983 | > 16 | 0.705 | 2.43 | 0.751 | 5.47 | 0.982 | > 2 |
| MN-60 (B-cell leukaemia, suspension) | 0.981 | > 8 | 0.988 | > 16 | 0.986 | > 5 | 0.906 | > 10.2 | 0.799 | 8.01 | 0.953 | > 10 | 0.888 | > 16 | 0.954 | > 2 |
| MOG-G-CCM (glioma, adherent) | 0.961 | > 8 | 0.92 | > 16 | 0.903 | > 5 | 0.77 | 4.53 | 0.84 | 13.8 | 0.717 | 2.89 | 0.741 | 5.57 | 0.664 | 0.387 |
| MOG-G-UVW (glioma, adherent) | 0.93 | > 8 | 0.833 | 9.94 | 0.934 | > 5 | 0.919 | > 10.2 | 0.836 | 10.2 | 0.58 | 1.03 | 0.454 | 0.752 | 0.576 | 0.2 |
| MOLT-4 (lymphoblastic leukaemia, suspension) | 0.966 | > 8 | 0.668 | 2.65 | 0.98 | > 5 | 0.741 | 2.65 | 0.6 | 1.78 | 0.674 | 1.72 | 0.261 | 0.244 | 0.56 | 0.176 |
| MONO-MAC-6 (acute myeloid leukaemia, suspension) | 0.881 | > 8 | 0.533 | 1.24 | 0.922 | > 5 | 0.729 | 2.99 | 0.375 | 0.442 | 0.786 | 4.6 | 0.801 | 8.36 | 0.088 | < 0.00781 |
| MPP-89 (mesothelioma, adherent) | 0.947 | > 8 | 0.746 | 6.45 | 0.944 | > 5 | 0.865 | > 10.2 | 0.953 | > 16 | 0.894 | > 10 | 0.821 | 13.2 | 0.625 | 0.307 |
| MRK-nu-1 (breast, suspension) | 0.936 | > 8 | 0.646 | 2.44 | 0.98 | > 5 | 0.78 | 3.85 | 0.921 | > 16 | 0.709 | 2.29 | 0.366 | 0.44 | 0.942 | > 2 |
| MS751 (cervix, adherent) | 0.988 | > 8 | 0.914 | > 16 | 0.926 | > 5 | 0.91 | > 10.2 | 0.9 | > 16 | 0.631 | 1.39 | 0.585 | 1.67 | 0.831 | 1.13 |
| MS-1 (small cell lung carcinoma, suspension) | 0.985 | > 8 | 0.933 | > 16 | 0.984 | > 5 | 0.863 | 7.36 | 0.861 | 11.3 | 0.905 | > 10 | 0.71 | 3.62 | 0.871 | 1.55 |
| MZ1-PC (pancreas, adherent) | 0.852 | > 8 | 0.828 | 13.3 | 0.861 | > 5 | 0.742 | 3.79 | 0.848 | > 16 | 0.72 | 3.11 | 0.452 | 0.719 | 0.902 | > 2 |
| Mo-T (hairy cell leukaemia, suspension) | 0.973 | > 8 | 0.975 | > 16 | 0.981 | > 5 | 0.889 | > 10.2 | 0.829 | 10.2 | 0.808 | 5.3 | 0.948 | > 16 | 0.756 | 0.698 |
| NAMALWA (Burkitt lymphoma, suspension) | 0.979 | > 8 | 0.985 | > 16 | 0.99 | > 5 | 0.563 | 0.925 | 0.802 | 6.47 | 0.715 | 2.26 | 0.431 | 0.668 | 0.531 | 0.15 |

Reference: the supplement of paper PMC4967469
